Among all 48,000 compounds or so, about 450 (0.94%) were called active. About 19% were inconclusive and are not listed. Calls follow the shape of the dose curve; as a rule, active = well fitted inhibition curve with a large enough effect; inconclusive = small, poorly fitted or top-dose-only effect; inactive = no such curve, though single readings can be large or run the other way. The list shows a part of the results.
Test: Primary qHTS for Identification of Small Molecule Inhibitors of Huntingtin Promoter Activity; also: nearly all actives have a fitted effect of over 50% in size
Conditions: HEK293 HTT promoter firefly luciferase reporter (activity 0% = vehicle and -100% = no light), 24 h; series mostly up to 57.5 µM; activity change, negative = inhibition: at the top concentration
Procedure, shortened: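 Quantitative HTS used concentration series of up to 57.5 uM final on HEK293 luciferase reporter cells, 24 h at 37 degrees C. Readout was Dual-Glo firefly luminescence.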

Activity change, negative = inhibition, inactive:
CCCc1nn2c(=O)cc(COC(=O)c3ccc(NC(=O)COc4ccc(F)cc4)cc3)nc2s1 -29.9%, CN(C)c1ccc(CNC(=O)C2CCN(c3nc4ccccc4[nH]3)CC2)cc1 -4.34%, Cc1cc(S(=O)(=O)N2CCN(Cc3noc(CCC(=O)N4CCCCC4)n3)CC2)ccc1F -28.8%, COC(=O)c1cc2occc2n1Cc1nc(-c2ccccc2)oc1C -17.6%, COc1ccc(Cn2c(CCC(=O)NCc3ccc(Cl)cc3)nc3cccnc32)cc1 -11%, CCOC(=O)COc1ccc(C2C(C(=O)OC)=C(C)NC3=C2C(=O)c2ccccc23)cc1Cl (configuration not stated) -6.05%, COc1cccc(CNC(=O)c2cnc3sc(N4CCCC4)nn3c2=O)c1OC -2.42%, CSc1ccc(CCNC(=O)NCc2noc3ccccc23)cc1 -30.2%, Cc1ccc(C(=O)NCC(c2ccc3c(c2)OCO3)N2CCOCC2)cc1C (configuration not stated) -21%, CCOC(=O)c1cc(S(=O)(=O)Nc2cc(OC)ccc2OC)[nH]n1 -18.5%, COc1ccc(CNc2nc(-c3ccco3)nn2S(=O)(=O)c2ccc(Cl)cc2)cc1OC -8.36%, COc1ccc(Cl)cc1NC(=O)c1cc2c(=O)n3ccccc3nc2s1 6.98%, COc1ccc(-c2c(C#N)c(SCC(=O)Nc3ccccc3C)nc(C)c2C(=O)Nc2ccc(Cl)cc2)cc1 -27.9%, COC(=O)c1c(NC(=O)CCCOc2cccc(C)c2)sc2c1CCC2 -14.5%, Cc1cc(O)c(C(c2cccc(F)c2)N2CCN(c3ccccc3)CC2)c(=O)n1Cc1ccco1 (configuration not stated) -5.82%, Cc1cc2c(cc1S(N)(=O)=O)S(=O)(=O)CCC2 11.7%, C[C@H]1O[C@H](O[C@H]2[C@H](O)[C@@H](O)[C@@H](O[C@H]3[C@H](O)[C@@H](O)[C@H](O)O[C@@H]3CO)O[C@@H]2CO)[C@H](O)[C@@H](O)[C@@H]1N[C@H]1C=C(CO)[C@@H](O)[C@H](O)[C@H]1O 4.76%, Cc1cc(C)n(-c2nnc(Nc3ccc(C)c(C)c3)c3ccccc23)n1 -21.5%, O=C1Nc2ccccc2Oc2cc(Oc3ccccc3)ccc21 -12.3%, Cc1ccc(C)c(CN2C(=O)c3ccccc3S(=O)(=O)c3ccc(C(=O)OCC4CCCO4)cc32)c1 (configuration not stated) -15.3%, CCCC(=O)Nc1nnc(S(=O)(=O)N(C)Cc2ccc(Cl)cc2)s1 4.67%, CC(C)c1ccc(S(=O)(=O)c2nnn3c2nc(N2CCCC2)c2sccc23)cc1 -6.95%, Cn1c(=O)[nH]c2cc(-c3noc(-c4ccc(Br)cc4)n3)ccc21 -4.64%, Cc1cccc(-c2nn3c(=O)cc(CN4CCN(C(=O)/C=C/c5ccccc5)CC4)nc3s2)c1 -24.5%, Cc1cnc(Nc2cccc(CN3CCOCC3)c2)nc1Nc1cccc(S(=O)(=O)NC(C)(C)C)c1 -8.5%, COc1cc2c(C(=O)Nc3cc(OC)c(OC)c(OC)c3)cn(C)c(=O)c2cc1OC -4.66%, O=C(CC1N=C2c3ccccc3N=C(SCc3ccc(F)cc3)N2C1=O)NCc1ccc2c(c1)OCO2 (configuration not stated) 0%, Cc1ccc(NC(=O)CSc2nnc3ccc4ccccc4n23)cc1 -12.6%, O=C(NCCN1CCN(c2cccc(Cl)c2)CC1)Nc1ccccc1 -17.8%, CCc1ccc(NC(=O)c2ccc(-c3ccccc3)s2)cc1 22%, CCOC(=O)C1CCN(c2ncnc3c2nc2n3CCCCC2)CC1 3.37%, Cc1cccc(C(=O)NCC(c2ccco2)S(=O)(=O)c2cccs2)c1 (configuration not stated) -5.78%, Cc1cccc(NC(=O)c2ccc(-c3ccccc3)s2)c1 44.6%, CCc1cnc2c(c1SCC(=O)NCc1ccccc1Cl)c(=O)n(C)c(=O)n2C -5.36%, CCC(Oc1ccccc1)C(=O)Nc1nnc(S(=O)(=O)N(CC)CC)s1 (configuration not stated) -24.7%, Brc1cccc(-c2nnn3c2nc(NCc2ccc4c(c2)OCO4)c2ccccc23)c1 20.6%, COc1ccc(-n2ncc(C(=O)NCc3ccco3)c2C2CCN(C(=O)OC(C)(C)C)CC2)cc1 2.38%, CCCNC(=O)Cn1c(=O)n(CC2CCC(C(=O)NC)CC2)c(=O)c2sccc21 (configuration not stated) 1.75%, CCN(CC)S(=O)(=O)c1ccc2c(c1)N(CC(=O)Nc1ccccc1F)C(=O)C1CCCN21 (configuration not stated) -10.1%, Cc1ccc(NC(=O)/C(C#N)=C/c2ccc(-c3ccc(Cl)c(C(=O)O)c3)o2)cc1C 22.7%, COc1cccc(NC(=O)C2CCCN(S(=O)(=O)c3cn(C(C)C)cn3)C2)c1 (configuration not stated) -26.7%, NCCNCCNCCNCCN -8.28% [at 11.5 µM], Cc1cccc(C(=O)Nc2ccc(S(=O)(=O)N3CCC(c4nc5ccccc5s4)CC3)cc2)c1 -19.9%, Cc1cc(C)c(NC(=O)CSc2ncc3c(n2)-c2cc(Cl)ccc2N(C)S3(=O)=O)c(C)c1 -5.59%, CCC(C)(C)NC(=O)C1CCN(S(=O)(=O)c2ccc3c(c2)CCCN3C(C)=O)CC1 -19.8%, Cc1ccc(CN2CCC(CNC(=O)c3cnn(-c4ccccc4)c3C3CCN(C(=O)OC(C)(C)C)CC3)CC2)cc1 -1.53%, Cc1ccc2c(c1)C(=O)C(=O)N2Cc1ccc(OCCC(C)C)cc1 -4.76%, COc1ccc(NC(=O)c2oc3ccc(S(=O)(=O)N4CCCCC4)cc3c2C)cc1Cl -22.7%, COc1ccc(NC(=O)c2cc(C(C)=O)n3ccccc23)cc1 29.8%, COc1cc2c(=O)n(Cc3ccco3)c(=O)n(CC(=O)Nc3ccc(F)cc3)c2cc1OC -2.64%, CCOc1cc2[nH]c(=O)n(Cc3ccc(C(=O)N4CCN(c5ccccc5)CC4)cc3)c(=O)c2cc1OCC -26.2%, CSc1ncc(Cl)c(C(=O)Nc2cc(C(F)(F)F)ccc2Cl)n1 0.528%, Cc1nc(-c2ccc(Cl)cc2)sc1CCNC(=O)C(=O)Nc1ccc2c(c1)OCCO2 -33.5%, O=C(O)c1ccc(NCc2nc3ccccc3n2CCOc2ccccc2Cl)cc1 -26.6%, COc1ccc(N(C)C(=O)c2nn(-c3ccc(C)cc3)c(=O)n(C)c2=O)c(OC)c1 -4.44%, Cc1cc(C)cc(NC(=O)N2CCC(C(N)=O)(N3CCCCC3)CC2)c1 4.31%, CCOC(=O)N1CCC(NC(=O)c2cnn(-c3ccc(F)cc3)c2-n2cccc2)CC1 -28%, CCN(CC)c1cc(C)c2cc(NC(=O)/C=C/c3ccccc3Cl)ccc2n1 -5.53%, COc1ccc(N2CC(NC(=O)C(=O)c3c[nH]c4ccccc34)CC2=O)cc1 (configuration not stated) -9.22%, COc1ccc(CNC(=O)CC(C)n2nc(C)cc2C)cc1 (configuration not stated) 0.805%, Cc1ccc(-c2nn(-c3ccc(F)cc3F)c3c2cnc2ccc(F)cc23)cc1 -2.41%, O=C(CSc1ncc2c(n1)-c1cc(Cl)ccc1N(Cc1ccccc1)S2(=O)=O)Nc1ccc(F)cc1F -28.1%, O=C(CCSCc1cccc(Cl)c1)NCc1ccccc1Cl -13.6%, CC(C)Oc1ccc(C(=O)N2CCN(c3nc4c(F)cc(F)cc4s3)CC2)cc1 1.86%, O=c1c(N2CCN(c3ccccc3)CC2)csc2ccc(Cl)cc12 -6.93%, CCN1c2ccccc2-n2cccc2C12CCN(C(=O)Nc1ccccc1Br)CC2 -19.6%, CCCCn1cc(S(=O)(=O)c2ccccc2)c(=O)c2cc(F)c(N3CCN(CCC)CC3)cc21 -12.5%, CCOCCn1ccc2c(OCC(=O)NCc3ccc(F)cc3)cccc2c1=O -1.88%, COc1ccc(C2CC(=O)N(Cc3ccccc3C)c3c2c(C)nn3-c2nc(C)cc(C)n2)c(OC)c1 (configuration not stated) -20.7%, COc1ccc(NC(=O)CSC2=Nc3ccccc3C3=NC(CC(=O)NCc4ccccc4OC)C(=O)N23)cc1Cl (configuration not stated) -22.3%, COc1ccc(-c2nc3c4ccccc4n(CC(=O)Nc4ccc(C(C)C)cc4)c(=O)n3n2)cc1 0%, Cc1ccccc1-n1c(SCC(=O)Nc2ccc(Cl)cc2Cl)nc(O)cc1=O -11.6%, CCc1sc(Nc2cccc(C)c2)nc1-c1cc2cccc(OC)c2oc1=O -11.6%, OCCOCCN1CCN(C2=Nc3ccccc3Sc3ccccc32)CC1 3.47%, CC(=O)N1CCc2c(sc3c2c(=O)n(-c2ccc(F)cc2)c(=O)n3Cc2cc(C)ccc2C)C1 0.34%, COc1ccc(-c2noc(-c3ccc(N4CCN(C)CC4)c([N+](=O)[O-])c3)n2)cc1 2.33%, COc1cc(C(=O)N2CCN(CCc3ccncc3)CC2)cc(OC)c1OC 4.97%, COc1cccc(-n2c(=O)c3c(C)c(C(=O)N(C)C)sc3n(Cc3cccc(C)c3)c2=O)c1 -4.23%, COc1ccc(-c2nc(C)c(CCNC(=O)C(=O)Nc3ccccc3F)s2)cc1 -1.91%, Cc1ccc(NC(=O)Cn2c(=O)n(CC3CCC(C(=O)NC(C)C)CC3)c(=O)c3sccc32)cc1 (configuration not stated) -19.6%, COc1ccc(C(CNC(=O)COc2cc(C)cc(C)c2)N2CCCCC2)cc1 (configuration not stated) -15.8%, COc1ccccc1-n1nc(-c2ccccc2)c2cnc3c(F)cc(F)cc3c21 -15%, CCc1cc(S(=O)(=O)O)c2cc(C(C)C)cccc1-2 -2.37%, COc1ccc(CCN2CCC(CNC(=O)c3cnn(-c4ccc(C)cc4)c3C3CCN(C(=O)OC(C)(C)C)CC3)CC2)cc1 -9.1%, Cc1ccc(N2CC(C(=O)NCCS(=O)(=O)N3CCN(c4ccccc4F)CC3)CC2=O)cc1 (configuration not stated) -6.64%, CN(C)CCN(C(=O)c1ccco1)c1nc2c(F)cc(F)cc2s1 15.6%, CC1CCN(C(=O)CSc2c3c(nc4ccc(Cl)cc24)CCCC3)CC1 -26%, Cc1nc2c3ccccc3nc(NNC(=O)CCC(=O)N3CCN(c4cccc(Cl)c4)CC3)n2n1 -20.9%, Cc1cccc(NC(=O)CSc2nc3ccccc3nc2N2CCC(C)CC2)c1 -11.9%, COc1ccc(S(=O)(=O)N(CC(=O)Nc2ccc(F)c(Cl)c2)c2ccc(C)cc2)cc1OC -29.1%, COc1cccc2c1C(=O)c1c(O)c3c(c(O)c1C2=O)C[C@@](O)(C(=O)CO)C[C@@H]3O[C@H]1C[C@H](N)[C@H](O)[C@H](C)O1 -27.7%, Cn1cnc(S(=O)(=O)N2CCC(C(=O)Nc3ccc(F)cc3F)CC2)c1 -10.5%

From PubChem BioAssay AID1508623 (National Center for Advancing Translational Sciences (NCATS), 2021)
